Measured values reported in the supplement of paper PMC4166925.
± gives the standard deviation of the averaged measurements. In all, about 33,000 sequences were measured (“E-score (dimensionless, -0.5 to 0.5)”: median about -0.046, highest 2% from about 0.36 on). The list shows a part of the results.

System: T1, SpTbr T-box DNA-binding domain (GST fusion)
T1 sequence: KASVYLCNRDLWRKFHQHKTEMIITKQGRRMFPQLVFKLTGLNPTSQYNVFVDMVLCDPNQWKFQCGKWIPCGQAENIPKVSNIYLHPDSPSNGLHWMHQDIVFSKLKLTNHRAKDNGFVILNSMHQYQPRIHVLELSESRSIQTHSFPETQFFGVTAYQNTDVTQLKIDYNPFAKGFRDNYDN
Assay: PBM E-score of 8-mer (E-score (dimensionless, -0.5 to 0.5)); Tbr is Tbrain of the sea star Patiria miniata (Pm) or the sea urchin Strongylocentrotus purpuratus (Sp); higher = stronger binding preference; most listed sequences are background and not binding sites
Settings: the construct has about 5 more residues each side
Procedure, shortened: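 Each ungapped 8-mer received an enrichment E-score from the Universal PBM Analysis Suite, averaged over duplicate arrays. The proteins were Tbr T-box DNA-binding domains, covering the whole T-box plus about five flanking residues, fused to GST and expressed in BL21 E. coli at 20 °C before glutathione affinity purification. Universal Agilent oligonucleotide arrays were made double-stranded by primer extension and incubated with 200 nM protein in PBS (pH 7.5). The arrays were then scanned and quantified, and every 8-mer was scored from probe intensities.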

| Sequence | PBM E-score of 8-mer |
| --- | --- |
| CAAGCGAC | -0.00453 ± 0.034 |
| ACTCATAG | 0.0246 ± 0.073 |
| GCTTAGCA | 0.0326 ± 0.054 |
| AACGATAG | -0.202 ± 0.092 |
| ATACGTTA | 0.0202 ± 0.072 |
| CTAGCCCC | -0.172 ± 0.015 |
| ATCAGAGC | -0.23 ± 0.031 |
| GCACTAGA | -0.104 ± 0.021 |
| ACCCTCTA | -0.0709 ± 0.017 |
| ACATGGAT | -0.00132 ± 0.02 |
| AACTGCGT | -0.0404 ± 0.072 |
| CATCTTTA | -0.238 ± 0.014 |
| AAAATTAT | -0.0344 ± 0.022 |
| ATAGTCCC | -0.103 ± 0.015 |
| AACGACAC | 0.306 ± 0.01 |
| ATCCGGAA | -0.266 ± 0.045 |
| GATGAACA | -0.0218 ± 0.061 |
| CTTGTTTC | 0.0184 ± 0.067 |
| ATCTTCAT | 0.104 ± 0.0029 |
| AACTTCGA | 0.0164 ± 0.033 |
| CTCAGATA | -0.216 ± 0.056 |
| AGAACGTG | 0.186 ± 0.0079 |
| AATAACAT | -0.056 ± 0.057 |
| CTTATTGC | 0.0127 ± 0.024 |
| AAGTATGT | -0.0386 ± 0.028 |

| Sequence | PBM E-score of 8-mer |
| --- | --- |
| CAGGCGCA | -0.102 ± 0.085 |
| AGCAGTGC | -0.00363 ± 0.029 |
| TTGCGCAA | 0.14 ± 0.029 |
| TAGGCGGA | -0.275 ± 0.055 |
| CGGTGGGC | -0.0799 ± 0.026 |
| CAACCTTG | 0.0419 ± 0.059 |
| AATTTACT | -0.165 ± 0.059 |
| TAGGGTCA | -0.125 ± 0.0069 |
| ACATCGAC | 0.232 ± 0.031 |
| CCCGGACG | -0.188 ± 0.026 |
| ATCACCAA | 0.175 ± 0.0053 |
| AGACCGCC | -0.156 ± 0.012 |
| CGCATTTA | 0.0985 ± 0.028 |
| CCCAGAGG | -0.127 ± 0.05 |
| ATCCCACC | 0.311 ± 0.006 |
| AGGCGCAA | 0.326 ± 0.028 |
| TTCCGCAA | -0.0642 ± 0.02 |
| ATCCGAAG | -0.211 ± 0.011 |
| ATATCCCG | -0.129 ± 0.034 |
| CATAGTAC | -0.0998 ± 0.079 |
| GAACCCTC | -0.224 ± 0.012 |
| GGTTCCGA | -0.278 ± 0.025 |
| CTTGTAGA | -0.184 ± 0.067 |
| CGAACTAG | 0.0383 ± 0.022 |
| CAGTTTCA | 0.0753 ± 0.036 |

| Sequence | PBM E-score of 8-mer |
| --- | --- |
| CGTCTATC | -0.313 ± 0.018 |
| GTACCCAC | 0.0971 ± 0.053 |
| GTTTGCTA | 0.0463 ± 0.038 |
| CCACTATC | 0.129 ± 0.028 |
| GTAACATA | 0.0195 ± 0.023 |
| CTTCCGCC | -0.0616 ± 0.065 |
| ATCATTGA | -0.0521 ± 0.04 |
| GTATGACA | 0.171 ± 0.071 |
| ATGAGAGC | -0.212 ± 0.034 |
| GAACTTAA | -0.0875 ± 0.035 |
| TTAACGAA | 0.0574 ± 0.049 |
| AGGCACGC | 0.195 ± 0.1 |
| CCTGAGCG | -0.0465 ± 0.036 |
| TACGTCAA | -0.192 ± 0.022 |
| ATTCCTTA | -0.161 ± 0.012 |
| ACCATTAA | -0.059 ± 0.16 |
| AACCCAGA | 0.0319 ± 0.023 |
| AACTAATG | -0.0496 ± 0.012 |
| AACGGTGT | 0.175 ± 0.097 |
| GCAGTGAA | 0.0838 ± 0.019 |
| CAGTACTC | 0.0271 ± 0.023 |
| CACACATA | 0.3998 ± 0.0028 |
| CTGTGCAA | -0.205 ± 0.034 |
| CCGTGACC | 0.0362 ± 0.0016 |
| AGGCTCTC | -0.175 ± 0.028 |

| Sequence | PBM E-score of 8-mer |
| --- | --- |
| CCCTAGTC | 0.0588 ± 0.035 |
| CCACCGTA | -0.0423 ± 0.022 |
| GAAGGCTC | -0.226 ± 0.039 |
| CTGACGCA | 0.1611 ± 0.00065 |
| CACATGAA | 0.181 ± 0.078 |
| ATAAGAAC | -0.134 ± 0.049 |
| TCTTCGAA | -0.0319 ± 0.031 |
| CTAAGAAC | -0.0621 ± 0.059 |
| AACTTATA | -0.235 ± 0.0056 |
| ATCAGCGG | -0.00193 ± 0.058 |
| CAGCACGG | -0.0611 ± 0.049 |
| ACGAGTAG | -0.213 ± 0.043 |
| AATTTGCC | -0.0934 ± 0.04 |
| CTTCGACC | -0.306 ± 0.014 |
| ATACCAAT | -0.091 ± 0.03 |
| CAATGCCG | -0.235 ± 0.043 |
| GATTAGCC | -0.13 ± 0.06 |
| TATTCTCA | 0.264 ± 0.061 |
| AAATACGG | 0.00766 ± 0.039 |
| CAACGGGG | 0.000945 ± 0.0056 |
| CCGTCAAG | 0.131 ± 0.03 |
| AACAATAA | 0.0691 ± 0.025 |
| ATCACCAT | 0.115 ± 0.012 |
| CATTTAAC | 0.207 ± 0.059 |
| CCCAAGGA | -0.017 ± 0.051 |

| Sequence | PBM E-score of 8-mer |
| --- | --- |
| CTCGCCAC | 0.288 ± 0.074 |
| GTATCGAC | 0.051 ± 0.022 |
| ATTCACCG | 0.0187 ± 0.041 |
| GCAACACA | 0.267 ± 0.014 |
| AACCATGT | 0.22 ± 0.017 |
| ACCGAATG | -0.1773 ± 0.0017 |
| AAACGCCG | 0.0493 ± 0.018 |
| AGTCTAAC | -0.12 ± 0.0043 |
| ACCTCTGA | 0.0163 ± 0.011 |
| GAGAGGGC | 0.046 ± 0.11 |
| AACCTGGC | 0.0794 ± 0.017 |
| CGAGATGA | -0.113 ± 0.01 |
| CCCCTGGC | -0.101 ± 0.024 |
| CAGTGAAG | 0.0203 ± 0.027 |
| ATCTTGGG | -0.181 ± 0.042 |
| GTAGAGTA | -0.138 ± 0.067 |
| GGTCACAA | 0.2073 ± 0.00096 |
| GACTAATC | -0.12 ± 0.024 |
| GTCCCAAC | -0.198 ± 0.015 |
| CAAGGTGC | 0.421 ± 0.0087 |
| ACTAATTC | -0.0835 ± 0.014 |
| AAAGGCCC | -0.3751 ± 0.0018 |
| AGCATTCA | -0.0969 ± 0.071 |
| GATGCATC | -0.279 ± 0.056 |
| ATCCATAA | -0.205 ± 0.037 |

| Sequence | PBM E-score of 8-mer |
| --- | --- |
| AGTGATTC | 0.138 ± 0.052 |
| ACGGTAAT | -0.0139 ± 0.064 |
| ACATCAGA | -0.198 ± 0.078 |
| AGACGTGC | 0.0338 ± 0.037 |
| AGCCTGTA | -0.21 ± 0.015 |
| GCGTAAGA | -0.00479 ± 0.014 |
| AACGGAGG | 0.0387 ± 0.059 |
| AAAATCCA | -0.268 ± 0.01 |
| GACTACCC | -0.111 ± 0.024 |
| AATAGGCG | 0.161 ± 0.023 |
| AACTCTGT | -0.042 ± 0.025 |
| CGCCTACC | 0.108 ± 0.0016 |
| ACCATCAC | 0.2525 ± 0.0011 |
| GCGAACTA | 0.272 ± 0.0034 |
| AGCATTGC | -0.0499 ± 0.076 |
| GGGTACAA | -0.302 ± 0.016 |
| CGGCAAAG | -0.233 ± 0.029 |
| ACGTTTCA | -0.0602 ± 0.01 |
| CGACCGGC | -0.054 ± 0.056 |
| AAACATCT | -0.163 ± 0.057 |
| GGTATCCA | -0.317 ± 0.072 |
| GTTGGTCA | -0.052 ± 0.042 |
| AACTAGCA | 0.178 ± 0.019 |
| ACATCCTG | -0.0152 ± 0.034 |
| AGTAATCG | 0.087 ± 0.023 |

| Sequence | PBM E-score of 8-mer |
| --- | --- |
| AGACTGCT | -0.259 ± 0.018 |
| AGATCTGC | 0.1 ± 0.0022 |
| GCGTTCCC | 0.0935 ± 0.063 |
| GTCCTACA | -0.182 ± 0.021 |
| ACTTGATC | -0.11 ± 0.02 |
| GGACGTTA | -0.24 ± 0.018 |
| AGCATAAG | -0.258 ± 0.046 |
| AATCTGTA | -0.191 ± 0.059 |
| ATCACATC | 0.109 ± 0.02 |
| ATACAAAT | -0.26 ± 0.0076 |
| TAATAGCA | 0.114 ± 0.087 |
| GCCCCCGA | -0.173 ± 0.055 |
| ATTTCTTA | -0.197 ± 0.048 |
| ACTGTTGG | 0.144 ± 0.029 |
| AGACGAAT | -0.0499 ± 0.015 |
| CGATGAAG | 0.00937 ± 0.009 |
| AAGCATCG | -0.208 ± 0.016 |
| ATCTTCCG | -0.0952 ± 0.073 |
| ACCGATCT | -0.0569 ± 0.026 |
| CCGCAATC | -0.0149 ± 0.00019 |
| AGAGTCTC | -0.00505 ± 0.057 |
| CCTTAACA | 0.221 ± 0.054 |
